The supplement of paper PMC8728848
The other results are listed elsewhere or left out.

How the values were obtained:
Experiment in all cases: glycan array binding signal (z-score within array); higher = stronger binding
Conditions in all cases: glycan notation: IUPAC condensed, linker removed
Neu5Ac(a2-8)Neu5Ac = biological target: Neu5Ac(a2-8)Neu5Ac
How it was run: (§1)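 Negative Z-scores can be read as non-binding. The Z-score is calculated within each array and then averaged across arrays of one protein sequence at different concentrations or buffers and across linkers. Arrays, 3228 in all, were curated from the Consortium for Functional Glycomics database and kept only where the protein sequence was available.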

[1] = biological target: Neu5Ac(a2-8)Neu5Ac(a2-3)Gal(b1-3)GalNAc(b1-4)[Neu5Ac(a2-3)]Gal(b1-4)Glc
How it was run: as §1

[2] = biological target: Neu5Ac(a2-8)Neu5Ac(a2-3)Gal(b1-3)GalNAc(b1-4)[Neu5Ac(a2-8)Neu5Ac(a2-3)]Gal(b1-4)Glc
How it was run: as §1

[3] = biological target: Neu5Ac(a2-8)Neu5Ac(a2-3)Gal(b1-4)Glc
How it was run: as §1

[4] = biological target: Neu5Ac(a2-8)Neu5Ac(a2-3)Gal(b1-4)GlcNAc
How it was run: as §1

[5] = biological target: Neu5Ac(a2-8)Neu5Ac(a2-3)[Gal(b1-3)GalNAc(b1-4)]Gal(b1-4)Glc
How it was run: as §1

[6] = biological target: Neu5Ac(a2-8)Neu5Ac(a2-3)[GalNAc(b1-4)]Gal(b1-4)Glc
How it was run: as §1

[7] = biological target: Neu5Ac(a2-8)Neu5Ac(a2-8)Neu5Ac
How it was run: as §1

[8] = biological target: Neu5Ac(a2-8)Neu5Ac(a2-8)Neu5Ac(a2-3)Gal(b1-4)Glc
How it was run: as §1

[9] = biological target: Neu5Ac(a2-8)Neu5Ac(a2-8)Neu5Ac(a2-3)[Gal(b1-3)GalNAc(b1-4)]Gal(b1-4)Glc
How it was run: as §1

[10] = biological target: Neu5Ac(a2-8)Neu5Ac(a2-8)Neu5Ac(a2-3)[GalNAc(b1-4)]Gal(b1-4)Glc
How it was run: as §1

[11] = biological target: Neu5Ac(a2-8)Neu5Ac(a2-8)Neu5Ac(a2-8)Neu5Ac(a2-3)[GalNAc(b1-4)]Gal(b1-4)Glc
How it was run: as §1

[12] = biological target: Neu5Ac(a2-8)Neu5Gc(a2-3)Gal(b1-4)GlcNAc
How it was run: as §1

[13] = biological target: Neu5Ac(b2-6)Gal(b1-4)GlcNAc
How it was run: as §1

Neu5Ac(b2-6)GalNAc = biological target: Neu5Ac(b2-6)GalNAc
How it was run: as §1

[14] = biological target: Neu5Ac9Ac(a2-3)Gal(b1-3)GlcNAc
How it was run: as §1

[15] = biological target: Neu5Ac9Ac(a2-3)Gal(b1-4)GlcNAc
How it was run: as §1

[16] = biological target: Neu5Ac9Ac(a2-6)Gal(b1-4)GlcNAc
How it was run: as §1

[17] = biological target: Neu5Gc(a2-3)Gal(b1-3)GlcNAc
How it was run: as §1

[18] = biological target: Neu5Gc(a2-3)Gal(b1-3)[Fuc(a1-4)]GlcNAc
How it was run: as §1

Neu5Gc(a2-3)Gal(b1-4)Glc = biological target: Neu5Gc(a2-3)Gal(b1-4)Glc
How it was run: as §1

[19] = biological target: Neu5Gc(a2-3)Gal(b1-4)GlcNAc
How it was run: as §1

[20] = biological target: Neu5Gc(a2-3)Gal(b1-4)GlcNAc(b1-3)Gal(b1-4)GlcNAc(b1-2)Man(a1-3)[Neu5Gc(a2-3)Gal(b1-4)GlcNAc(b1-3)Gal(b1-4)GlcNAc(b1-2)Man(a1-6)]Man(b1-4)GlcNAc(b1-4)GlcNAc
How it was run: as §1

[21] = biological target: Neu5Gc(a2-3)Gal(b1-4)[Fuc(a1-3)]GlcNAc
How it was run: as §1

[22] = biological target: Neu5Gc(a2-6)Gal(b1-4)GlcNAc
How it was run: as §1

Neu5Gc(a2-6)GalNAc = biological target: Neu5Gc(a2-6)GalNAc
How it was run: as §1

[23] = biological target: Neu5Gc(a2-8)Neu5Ac(a2-3)Gal(b1-4)GlcNAc
How it was run: as §1

[24] = biological target: Neu5Gc(a2-8)Neu5Gc(a2-3)Gal(b1-4)GlcNAc
How it was run: as §1

[25] = biological target: Neu5Gc(a2-8)Neu5Gc(a2-3)Gal(b1-4)GlcNAc(b1-3)Gal(b1-4)GlcNAc
How it was run: as §1

[26] = biological target: Neu5Gc(a2-8)Neu5Gc(a2-6)Gal(b1-4)GlcNAc
How it was run: as §1

[27] = biological target: Neu5Gc(b2-6)Gal(b1-4)GlcNAc
How it was run: as §1

B1: CaSRK1 (Capsicum annuum) (protein)
chain: MALCKIFPFAFILLSCSCYLISGQRFDYPTANLSTTWINSVSAPHSIDYTDGSRIRAILLRGTFGPRYACGFYCNGNCESYLFAIFIVQTNSASQITSPAIGFPQVVWSANRNNPVKINSTLQLTAEGDLVLRDADGTLAWSTNTAGKSVAGLSLTDEGNLALFDSKNATVWQSFDHPTDALVPGQKLVPGMKLTASVSRTNWTAGGLFALSAIDNGLVAFVESNPPQKYFEASVGGSNTSGGSNYVKYLNGSLTLFTHSADTTELILISITPASSAQYMKLESNGHLKVYEWTSRGWREVDDLLTGFRGECNYPTVCGRYGICTMGQCSCPTSSSSRTYFRPIDVRRPSLGCSEVTKLTCQNTKKHSPLEVEDVDYFAFKAGISDTDLNTCKRACLEKCSCKAAFFRSGLNSSRTRGDCYLPTEIFSIMNNEKDRTRYDSVAFIKVQV
**Q.** Which “glycan array binding signal (z-score)” value (Neu5Ac(a2-8)Neu5Ac) does the source give for B1 here?
**A.** -0.408

**Q.** What about the “glycan array binding signal (z-score)” value [1] of the same binder?
**A.** -0.496

**Q.** And the “glycan array binding signal (z-score)” value [2]?
**A.** 1.3

**Q.** And the “glycan array binding signal (z-score)” value [3]?
**A.** 0.045

**Q.** And the “glycan array binding signal (z-score)” value [4]?
**A.** -0.39

**Q.** What about the “glycan array binding signal (z-score)” value [5] of the same binder?
**A.** -0.25

**Q.** What about the “glycan array binding signal (z-score)” value [6] of the same binder?
**A.** -0.56

**Q.** And the “glycan array binding signal (z-score)” value [7]?
**A.** -0.518

**Q.** And the “glycan array binding signal (z-score)” value [8]?
**A.** -0.573

**Q.** And the “glycan array binding signal (z-score)” value [9]?
**A.** 0.411

**Q.** What about the “glycan array binding signal (z-score)” value [10] of the same binder?
**A.** -0.587

**Q.** What about the “glycan array binding signal (z-score)” value [11] of the same binder?
**A.** -0.413

**Q.** And the “glycan array binding signal (z-score)” value [12]?
**A.** -0.28

**Q.** And the “glycan array binding signal (z-score)” value [13]?
**A.** -0.465

**Q.** What about the “glycan array binding signal (z-score)” value (Neu5Ac(b2-6)GalNAc) of the same binder?
**A.** -0.495

**Q.** What about the “glycan array binding signal (z-score)” value [14] of the same binder?
**A.** 1.15

**Q.** What about the “glycan array binding signal (z-score)” value [15] of the same binder?
**A.** -0.344

**Q.** And the “glycan array binding signal (z-score)” value [16]?
**A.** -0.543

**Q.** What about the “glycan array binding signal (z-score)” value [17] of the same binder?
**A.** -0.291

**Q.** What about the “glycan array binding signal (z-score)” value [18] of the same binder?
**A.** -0.319

**Q.** What about the “glycan array binding signal (z-score)” value (Neu5Gc(a2-3)Gal(b1-4)Glc) of the same binder?
**A.** 3.18

**Q.** And the “glycan array binding signal (z-score)” value [19]?
**A.** -0.416

**Q.** And the “glycan array binding signal (z-score)” value [20]?
**A.** 0.084

**Q.** And the “glycan array binding signal (z-score)” value [21]?
**A.** 0.49

**Q.** What about the “glycan array binding signal (z-score)” value [22] of the same binder?
**A.** 0.036

**Q.** And the “glycan array binding signal (z-score)” value (Neu5Gc(a2-6)GalNAc)?
**A.** -0.311

**Q.** And the “glycan array binding signal (z-score)” value [23]?
**A.** -0.438

**Q.** And the “glycan array binding signal (z-score)” value [24]?
**A.** -0.396

**Q.** What about the “glycan array binding signal (z-score)” value [25] of the same binder?
**A.** -0.123

**Q.** And the “glycan array binding signal (z-score)” value [26]?
**A.** -0.509

**Q.** And the “glycan array binding signal (z-score)” value [27]?
**A.** -0.486
